This note sets out measurements from patent publication US20250270339A1 (Alector, published 2025).

T1: Cyno TfR ECD Avi-His (cynomolgus macaque, UniProt Q5RDH6 89-760 (Pongo abelii entry), biotin on the Avi tag (BirA) where captured on streptavidin)
T1 construct: also called Cyno TfR Avi-His; cyno TfR Avi-His
T1 chain: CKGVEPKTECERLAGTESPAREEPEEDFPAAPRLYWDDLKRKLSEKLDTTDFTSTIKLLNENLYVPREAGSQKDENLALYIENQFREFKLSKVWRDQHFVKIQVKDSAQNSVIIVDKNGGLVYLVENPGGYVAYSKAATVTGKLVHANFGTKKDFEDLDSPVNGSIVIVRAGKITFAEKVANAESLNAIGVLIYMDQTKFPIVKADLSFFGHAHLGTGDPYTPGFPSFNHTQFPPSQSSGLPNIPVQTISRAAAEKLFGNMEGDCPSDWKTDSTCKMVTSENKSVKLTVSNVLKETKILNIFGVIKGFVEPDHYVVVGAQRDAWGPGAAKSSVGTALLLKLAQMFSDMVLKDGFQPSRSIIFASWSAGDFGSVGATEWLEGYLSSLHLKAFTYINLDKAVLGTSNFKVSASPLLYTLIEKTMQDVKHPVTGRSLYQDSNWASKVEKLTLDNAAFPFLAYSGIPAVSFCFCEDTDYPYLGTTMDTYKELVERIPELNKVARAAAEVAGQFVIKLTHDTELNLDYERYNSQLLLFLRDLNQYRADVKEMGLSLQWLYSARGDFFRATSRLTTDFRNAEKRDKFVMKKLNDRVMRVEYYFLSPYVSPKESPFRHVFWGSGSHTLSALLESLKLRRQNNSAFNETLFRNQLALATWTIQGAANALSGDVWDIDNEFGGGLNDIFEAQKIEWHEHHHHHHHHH

T2: huTfR Apical Domain-Avi-His (human, biotin on the Avi tag (BirA) where captured on streptavidin)
T2 construct: also called huTfR apical Avi-His; hTfR Apical
T2 chain: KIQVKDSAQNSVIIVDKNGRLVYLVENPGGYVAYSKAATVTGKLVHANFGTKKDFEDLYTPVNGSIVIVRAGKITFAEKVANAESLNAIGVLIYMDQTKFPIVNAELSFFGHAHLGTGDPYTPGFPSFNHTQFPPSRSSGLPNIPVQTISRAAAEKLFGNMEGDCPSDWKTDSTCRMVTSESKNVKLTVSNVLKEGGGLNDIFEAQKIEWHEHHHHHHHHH

B1: TfR31 2+1 anti-TfR bispecific antibody (bispecific antibody, human IgG1, kappa)
heavy 1: EVRLLESGGGLVQPGGSLRLSCAASGFTFSNYAMGWVRQAPGKGLEWVSAISGSGGSTYYADSVKGRFTTSRDDSKNALYLQMNSLRAEDTAVYYCARGGPGWYAADVWGQGTTVTVSSASTKGPSVFPLAPSSKSTSGGTAALGCLVKDYFPEPVTVSWNSGALTSGVHTFPAVLQSSGLYSLSSVVTVPSSSLGTQTYICNVNHKPSNTKVDKKV[here human IgG1 Fc with changes without letters]GGGGSGGGGSGGGGSDVQLQESGPGLVKPSQSLSLTCTVTGYSITSDYAWNWIRQFPGNKLEWMGYISYSGRTSYNPSLKSRISFTRDTSKNQFFLQLNSVTTEDTATYYCAGWGYRYLEDYWGQGTSVTVSSGGSEGKSSGSGSESKSTGGSQIVLTQSPAIMSASPGEKVTMTCSASSSISSMHWYQLKPGTSPKKWIYDTSKLASGVPARFSGSGSGTSYSLTISSMEAEDAATYYCHQRSSYPWTFGGGTKLEIK
heavy 2: EVRLLESGGGLVQPGGSLRLSCAASGFTFSNYAMGWVRQAPGKGLEWVSAISGSGGSTYYADSVKGRFTTSRDDSKNALYLQMNSLRAEDTAVYYCARGGPGWYAADVWGQGTTVTVSS[here human IgG1 constant region with changes without letters]
light: DIQMTQSPSSLSASVGDRVTITCRASQSISSYLNWYQQKPGKAPKLLIYAASSLQSGVPSRFSGSGSGTDFTLTISSLQPEDFATYYCQQADLPAFAFGGGTKVEIKRTVAAPSVFIFPPSDEQLKSGTASVVCLLNNFYPREAKVQWKVDNALQSGNSQESVTEQDSKDSTYSLSSTLTLSKADYEKHKVYACEVTHQGLSSPVTKSFNRGEC
notes: 2+1
B2: TfR20 2+1 anti-TfR bispecific antibody (bispecific antibody, human IgG1, kappa)
heavy 1: EVRLLESGGGLVQPGGSLRLSCAASGFTFSNYAMGWVRQAPGKGLEWVSAISGSGGSTYYADSVKGRFTTSRDDSKNALYLQMNSLRAEDTAVYYCARGGPGWYAADVWGQGTTVTVSSASTKGPSVFPLAPSSKSTSGGTAALGCLVKDYFPEPVTVSWNSGALTSGVHTFPAVLQSSGLYSLSSVVTVPSSSLGTQTYICNVNHKPSNTKVDKKV[here human IgG1 Fc with changes without letters]GGGGSGGGGSGGGGSDVQLQESGPGLVKPSQSLSLTCTVTGYSITSDHAWNWIRQFPGNKLEWMGYISYSGSSSYNPSLKSRISITRDTSKNQFFLQLNSVTTEDTATYYCARSGWGMDYWGQGTSVTVSSGGSEGKSSGSGSESKSTGGSDIQMTQSPASLSASVGETVTITCRASEYINSYLAWYQQKQGKSPQLLVFKEKTLAEGVPSRFSGSGSGTQFSLKINSLQPEDFGSYYCQHHYGNPWTFGGGTKLEIK
heavy 2: EVRLLESGGGLVQPGGSLRLSCAASGFTFSNYAMGWVRQAPGKGLEWVSAISGSGGSTYYADSVKGRFTTSRDDSKNALYLQMNSLRAEDTAVYYCARGGPGWYAADVWGQGTTVTVSS[here human IgG1 constant region with changes without letters]
light: B1 light
notes: 2+1
B3: TfR21 2+1 anti-TfR bispecific antibody (bispecific antibody, human IgG1, kappa)
heavy 1: EVRLLESGGGLVQPGGSLRLSCAASGFTFSNYAMGWVRQAPGKGLEWVSAISGSGGSTYYADSVKGRFTTSRDDSKNALYLQMNSLRAEDTAVYYCARGGPGWYAADVWGQGTTVTVSSASTKGPSVFPLAPSSKSTSGGTAALGCLVKDYFPEPVTVSWNSGALTSGVHTFPAVLQSSGLYSLSSVVTVPSSSLGTQTYICNVNHKPSNTKVDKKV[here human IgG1 Fc with changes without letters]GGGGSGGGGSGGGGSQVQLQQPGSELVRPGASVKLSCKASGYTFTSYWTHWVKQRPGQGLEWIGNIYPGSGSSNYDEKFKSKATLTVDTSSSTAYMQLSSLTSEDSAVYFCTRSSYYGNFDTMDNWGQGTSVTVSSGGSEGKSSGSGSESKSTGGSDIQMTQSPASLSASVGETVTITCRASEYINSYLAWYQQKQGKSPQLLVFKEKTLAEGVPSRFSGSGSGTQFSLKINSLQPEDFGSYYCQHHYGNPWTFGGGTKLEIK
heavy 2: EVRLLESGGGLVQPGGSLRLSCAASGFTFSNYAMGWVRQAPGKGLEWVSAISGSGGSTYYADSVKGRFTTSRDDSKNALYLQMNSLRAEDTAVYYCARGGPGWYAADVWGQGTTVTVSS[here human IgG1 constant region with changes without letters]
light: B1 light
notes: 2+1
B4: TfR29 2+1 anti-TfR bispecific antibody (bispecific antibody, human IgG1, kappa)
heavy 1: EVRLLESGGGLVQPGGSLRLSCAASGFTFSNYAMGWVRQAPGKGLEWVSAISGSGGSTYYADSVKGRFTTSRDDSKNALYLQMNSLRAEDTAVYYCARGGPGWYAADVWGQGTTVTVSSASTKGPSVFPLAPSSKSTSGGTAALGCLVKDYFPEPVTVSWNSGALTSGVHTFPAVLQSSGLYSLSSVVTVPSSSLGTQTYICNVNHKPSNTKVDKKV[here human IgG1 Fc with changes without letters]GGGGSGGGGSGGGGSQVQLQQSGPQLVRPGASVKISCKASGYSFTNYWLHWVKQRPGQGLEWIGMIDPSDSETRLNQKFKDKATLTVDKSSSTAYMQLSSPTSEDSAVYYCARWGGGYYGFAYWGQGTLVTVSAGGSEGKSSGSGSESKSTGGSQIVLTQSPAIMSASPGEKVTMTCSASSSISYMHWYQQKPGTSPKRWIYDTSKLASGVPARFSGSGSGTSYSLTISSMEAEDAATYYCHQRSSYTFGGGTKLEIK
heavy 2: EVRLLESGGGLVQPGGSLRLSCAASGFTFSNYAMGWVRQAPGKGLEWVSAISGSGGSTYYADSVKGRFTTSRDDSKNALYLQMNSLRAEDTAVYYCARGGPGWYAADVWGQGTTVTVSS[here human IgG1 constant region with changes without letters]
light: B1 light
notes: 2+1
B5: TfR25 2+1 anti-TfR bispecific antibody (bispecific antibody, human IgG1, kappa)
heavy 1: EVRLLESGGGLVQPGGSLRLSCAASGFTFSNYAMGWVRQAPGKGLEWVSAISGSGGSTYYADSVKGRFTTSRDDSKNALYLQMNSLRAEDTAVYYCARGGPGWYAADVWGQGTTVTVSSASTKGPSVFPLAPSSKSTSGGTAALGCLVKDYFPEPVTVSWNSGALTSGVHTFPAVLQSSGLYSLSSVVTVPSSSLGTQTYICNVNHKPSNTKVDKKV[here human IgG1 Fc with changes without letters]GGGGSGGGGSGGGGSQVQLQQSGPELVKPGTSVKMSCKASGYTFTNYYIHWMKQRPGQGLEWIGWIYPGDGNTHYNERFKGKTTLTADKSSSTVYMFLTSLTSEDSAIYFCAKDKDMPGMDYWGQGTSVTVSSGGSEGKSSGSGSESKSTGGSDMVMTQSPSSLTVTAGEKVTMSCKSSQSLFNSENQKNYLTWYQQKPGQPPKLLISWASTRESGVPDRFTGSGSGTDFTLTINSVQAEDLAVYYCQNDYSYPLTFGAGTKLELK
heavy 2: EVRLLESGGGLVQPGGSLRLSCAASGFTFSNYAMGWVRQAPGKGLEWVSAISGSGGSTYYADSVKGRFTTSRDDSKNALYLQMNSLRAEDTAVYYCARGGPGWYAADVWGQGTTVTVSS[here human IgG1 constant region with changes without letters]
light: B1 light
notes: 2+1
B6: TfR24 2+1 anti-TfR bispecific antibody (bispecific antibody, human IgG1, kappa)
heavy 1: EVRLLESGGGLVQPGGSLRLSCAASGFTFSNYAMGWVRQAPGKGLEWVSAISGSGGSTYYADSVKGRFTTSRDDSKNALYLQMNSLRAEDTAVYYCARGGPGWYAADVWGQGTTVTVSSASTKGPSVFPLAPSSKSTSGGTAALGCLVKDYFPEPVTVSWNSGALTSGVHTFPAVLQSSGLYSLSSVVTVPSSSLGTQTYICNVNHKPSNTKVDKKV[here human IgG1 Fc with changes without letters]GGGGSGGGGSGGGGSQVQLQQSGPELVKPGTSVKMSCKASGYTFTSYYIHWVKQRPGQGLEWIGWIYPGDDNTHYNENFKGKTTLTADKSSSTAYMLLSSLTSEDSAIYFCARDYYGRFAYWGQGTLVTVSAGGSEGKSSGSGSESKSTGGSDIVMTQSPSSLTVTAGERVTMSCKSSQSLLNSGNQKNYLTWFQQKPGQPPKLLIYWASTRESGVPDRFTGSGSGTDFTVTISSVQAEDLAVYYCQNDYGYPLTFGAGTKLELK
heavy 2: EVRLLESGGGLVQPGGSLRLSCAASGFTFSNYAMGWVRQAPGKGLEWVSAISGSGGSTYYADSVKGRFTTSRDDSKNALYLQMNSLRAEDTAVYYCARGGPGWYAADVWGQGTTVTVSS[here human IgG1 constant region with changes without letters]
light: B1 light
notes: 2+1

The target in the first test is T3, Full length human TfR on CHO cells (human, UniProt P02786).
T3 construct: also called CHO + huTfR; CHO + hTfR
T3 sequence (P02786 whole entry): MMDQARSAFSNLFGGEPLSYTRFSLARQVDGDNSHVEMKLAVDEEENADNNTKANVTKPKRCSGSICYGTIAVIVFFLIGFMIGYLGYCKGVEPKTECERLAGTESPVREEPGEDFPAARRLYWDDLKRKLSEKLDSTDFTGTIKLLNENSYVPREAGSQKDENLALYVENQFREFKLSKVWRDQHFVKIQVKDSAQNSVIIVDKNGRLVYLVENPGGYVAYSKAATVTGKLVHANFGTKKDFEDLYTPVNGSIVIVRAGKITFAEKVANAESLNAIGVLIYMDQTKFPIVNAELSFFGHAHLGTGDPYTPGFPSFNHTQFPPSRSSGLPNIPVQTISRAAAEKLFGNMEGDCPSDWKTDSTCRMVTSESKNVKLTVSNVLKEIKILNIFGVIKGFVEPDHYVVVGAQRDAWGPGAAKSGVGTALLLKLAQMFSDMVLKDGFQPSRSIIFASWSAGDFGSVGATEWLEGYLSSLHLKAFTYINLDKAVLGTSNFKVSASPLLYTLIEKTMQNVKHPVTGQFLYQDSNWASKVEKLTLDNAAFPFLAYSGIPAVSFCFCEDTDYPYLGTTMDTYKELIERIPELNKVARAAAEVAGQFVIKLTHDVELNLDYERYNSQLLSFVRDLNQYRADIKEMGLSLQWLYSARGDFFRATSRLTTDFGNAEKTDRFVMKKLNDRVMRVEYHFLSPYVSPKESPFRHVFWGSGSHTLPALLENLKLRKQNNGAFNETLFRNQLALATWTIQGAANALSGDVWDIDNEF
The test can be described thus: FACS MFI.
Take B1: the “fold over CHO parental” value came out at 383 fold.

Turning to B2, the “fold over CHO parental” value came to 65 fold.

In the case of B3, the “fold over CHO parental” value came out at 2 fold.

In the case of B4, the “fold over CHO parental” value worked out at 1 fold.

On to B5, for which the “fold over CHO parental” value stood at 23 fold.

As to B6, the “fold over CHO parental” value amounted to 11 fold.

Another test has as its target T1, Cyno TfR ECD Avi-His. The test can be described thus: ELISA OD450. On the technique in general: An ELISA detects its analyte on a solid surface through an enzyme-linked reagent.
Consider B1, for which the “fold over isotype control” value worked out at 5 fold.

For B2, the “fold over isotype control” value amounted to 1 fold.

Turning to B3, the “fold over isotype control” value was 1 fold.

In the case of B4, the “fold over isotype control” value is 1 fold.

As to B5, the “fold over isotype control” value turned out to be 1 fold.

Turning to B6, the “fold over isotype control” value came to 1 fold.

The target of a further test is T4, Mouse TfR (muTfR) ECD Avi-His (mouse, UniProt Q62351, biotin on the Avi tag (BirA) where captured on streptavidin).
T4 construct: also called MuTfR Avi-His
Put plainly: ELISA OD450.
In the case of B1, the “fold over isotype control” value is 1 fold.

Turning to B2, the “fold over isotype control” value came to 2 fold.

As to B3, the “fold over isotype control” value turned out to be 1 fold.

As to B4, the “fold over isotype control” value was 1 fold.

B5: the “fold over isotype control” value was 1 fold.

In the case of B6, the “fold over isotype control” value came to 1 fold.

The target in another test is T2, huTfR Apical Domain-Avi-His. Put plainly: ELISA OD450.
Turning to B1, the “fold over isotype control” value came to 41 fold.

As for B2, the “fold over isotype control” value amounted to 1 fold.

On to B3, for which the “fold over isotype control” value amounted to 1 fold.

With B4, the “fold over isotype control” value is 1 fold.

Turning to B5, the “fold over isotype control” value amounted to 12 fold.

In the case of B6, the “fold over isotype control” value was 3 fold.
